Measurements: article PMC12136788
The list shows a part of the results.

T1: UNK ZnF1-3 (human, UniProt Q9C0B0 31-174)
T1 sequence: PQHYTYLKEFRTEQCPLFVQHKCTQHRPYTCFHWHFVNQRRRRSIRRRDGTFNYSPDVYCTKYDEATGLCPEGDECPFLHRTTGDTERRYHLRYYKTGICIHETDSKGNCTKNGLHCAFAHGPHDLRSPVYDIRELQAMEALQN

B1: chr8:74858975:74858976:-_ENSG00000154582_ENST00000284811|hu_mus|hu_hu_hu_mus_True|48_48 (ssRNA)
RNA: GGGAGUUCUACAGUCCGACGAUCGACCUUGUAGGUAAAAUACAUGCACACUUUUGAUAGCACAUGUGAGGGGAUCUCUCUAAAAUUGACCUCAUUGGUUUCAUUCUCAGCAAACUGACCUGGACCACUCAACAUAGCCUUUAUCAACAGAGGAUUGAGCAUCA
B2: chr4:155069534:155069535:+_ENSMUSG00000074738_ENSMUST00000099265|mus_hu|FALSE|FALSE (ssRNA)
RNA: GGGAGUUCUACAGUCCGACGAUCGUGAGCCGGAGUGCCCAUGGCUCUUGCUGGAAGGGGCUCCAUGCCCUGGCCGCCUCUAUAAAGGCCUGCGGAGAGCGGGGAGAGCCCUGGAUGCGGCUGGCACAGCAGCGCAAGCCCAGGCAACAGAGGAUUGAGCAUCA
B3: chr14:56114876:56114877:+_ENSMUSG00000022211_ENSMUST00000076236|mus_mus|FALSE|FALSE (ssRNA)
RNA: GGGAGUUCUACAGUCCGACGAUCGAGGGCAUUGGCCUCGUCUGUGGCAAGCAGCCCUGGGUUCUUGCUCAGGUCCAGGUAUCGGAGGGAGCUGGCAAAGGCUGGGUUGGCCCCGAAGGUCUGGCCCAGUGCCUGGAGCCCUCGCAACAGAGGAUUGAGCAUCA
B4: 119484126_119485788_879_CDS_ENSMUSG00000027305_ENSMUST00000110801|mouse|control|control (ssRNA)
RNA: GGGAGUUCUACAGUCCGACGAUCCCCACGAACUCGGAGAUACAGAGUAUUGAACUGGGACCAAUCAUAAGACAGCUUCCUCUCAAAAGCACCCCGUGGAAUCCUGGAGAUCAUGGCACAGUAUCCACUUUGUCUACUGUCCCCCAACAGAGGAUUGAGCAUCA
B5: chr1:120316058:120316059:+_ENSMUSG00000064302_ENSMUST00000049404|mus_mus|motif|central (ssRNA)
RNA: GGGAGUUCUACAGUCCGACGAUCCACCAUGUGUGUCUGAAGAGCAGCUGGUAGGAUAUUAAAAGUCCAAUUUAAAUAACGGGUAGGCAAUAAAGGAGAGAGUGGCGGAGUGAUGAUCUACAACUGGGUCUGAAAUACUUCAUACAACAGAGGAUUGAGCAUCA
B6: chr3:176740097:176740098:-_ENSG00000177565_ENST00000430069|hu_hu|FALSE|FALSE (ssRNA)
RNA: GGGAGUUCUACAGUCCGACGAUCUGUUUUUUACACCACAAAAGGAGGCACUUUCAGUAUCUGUAAAAGGUAUUUAAUCCUAAAACAUACUUACCUAGAGAAUAAUUAAAACAGAAUUCAAUACAAUCUAGUAUCUAUUAGGAACAACAGAGGAUUGAGCAUCA
B7: 3369786_3369906_1343_3pUTR_ENSMUSG00000025899_ENSMUST00000053407|mouse|control|control (ssRNA)
RNA: GGGAGUUCUACAGUCCGACGAUCAGUCCUUGUUGAUGCCAAGGUAUUUUCCAUUUCCACAUCCGAUAUCUGCCACUAUGGAACCACUUGGCAAAGCUUUCAGGAACUCUACUAUGCGUGGCCAUGGGCUAUGUCUUGUGCUGCCAACAGAGGAUUGAGCAUCA
B8: chr1:27731043:27731044:-_ENSG00000158195_ENST00000430629|hu_hu|FALSE|FALSE (ssRNA)
RNA: GGGAGUUCUACAGUCCGACGAUCGAAGAGCUCCUUUCCCAUCCUCAGGGGAAGAGUGCCUGUUUUCAAACGGCAUCCCUACUACACAUAUACCCCCCUUCCCUAAAAUCUUGAUGUGGCAAACACACCCAAGAACCCACAGGACAACAGAGGAUUGAGCAUCA
B9: chr3:150289932:150289933:+_ENSG00000144895_ENST00000460851|hu_hu|hu_hu_hu_mus_False|8_58 (ssRNA)
RNA: GGGAGUUCUACAGUCCGACGAUCCUUGUAGUUUUUAACAUCCCAUACUUCCAUUUGUCCUCGAAGAUUUCCAAAUCCAGCUAAUACUAAUAUAUGUCCAUGAGGGCUAUAGAAGGCUGCGUUGCGAGGACCAGUUCCAAAGUCCAACAGAGGAUUGAGCAUCA
B10: chr18:42481571:42481572:+_ENSMUSG00000024491_ENSMUST00000091920|mus_mus|FALSE|FALSE (ssRNA)
RNA: GGGAGUUCUACAGUCCGACGAUCAAGGUAUUGGAUGAGUGCUGCUUCUGGAUCACCCUUAAAAGCAACCUGGAUAUUAACUAUGGUUCCAAAUUUGCUGAAGUGUUCGUUGAGCUUGGUAAUGUUGUUCAAUUCCUGGGGGAUCAACAGAGGAUUGAGCAUCA
B11: chr3:88516089:88516090:+_ENSMUSG00000028060_ENSMUST00000029696|mus_mus|FALSE|FALSE (ssRNA)
RNA: GGGAGUUCUACAGUCCGACGAUCAUUGACCCAAUAGUAGUAAAAUACAAAUAAAACUUUCUUUACAACAGAGUUGAGGCUAUUCAUUUGGAAAAGGCUAGAUCAGGUCAAACAUAUGUAGCAAUGACUCUGUCCUGGUAUCUCCAACAGAGGAUUGAGCAUCA
B12: 109687645_109687765_1801_CDS_ENSG00000148143_ENST00000277225|human|control|control (ssRNA)
RNA: GGGAGUUCUACAGUCCGACGAUCGCUUGAGCUCUCAUAAGACACCACACCUUCAUUCAGUGAGGAAGAAAUGCUUUCACUCUGGGAAUUCACAGCAUCCCAAUCUGACGUUGUACCCGUGUGACACUGUUUGUGAGCCCCAAGCAACAGAGGAUUGAGCAUCA
B13: chr1:161298228:161298229:+_ENSG00000143252_ENST00000367975|hu_hu|FALSE|FALSE (ssRNA)
RNA: GGGAGUUCUACAGUCCGACGAUCCAUGGGAAGAGACCAACUGUAGAUAGUAAUGUGGGGAGACAGAGGACGGUUUGAACCUAUAUUCUUAUUCCAGAACCGCUCCAUCUCUUCUUUGGCCGUGGUUCCCAAAGGAACAGCAUUCAACAGAGGAUUGAGCAUCA
B14: 135033492_135033612_2786_3pUTR_ENSMUSG00000046062_ENSMUST00000052529|mouse|control|control (ssRNA)
RNA: GGGAGUUCUACAGUCCGACGAUCCUAAUGAGACACAUUACCCAAAAAUAAUCAAACUGCAUCUCUAGAUACAAGUUGUUUCUUUAAAAACAUGUCCAAGGACAGCUGCCAGUGUUUGUUUUUAAGGGAAACUCUCAAGUAAGACAACAGAGGAUUGAGCAUCA
B15: chr2:230653580:230653581:-_ENSG00000153827_ENST00000389045|hu_hu|FALSE|FALSE (ssRNA)
RNA: GGGAGUUCUACAGUCCGACGAUCAGUAAGCCAUGUUGGGAUGUUUCCUGUCAUGAUUACUAAAGGAUCUUGAAGUUGCCUAUUUGCUUUUGCUGUUAACUUACUGUUAAUAAAUUCACUAGUUGGAAUAAUUUCCUUGCACAUCAACAGAGGAUUGAGCAUCA
B16: chr2:179515052:179515053:+_ENSMUSG00000000305_ENSMUST00000000314|mus_hu|mus_mus_mus_hu_False|1_28 (ssRNA)
RNA: GGGAGUUCUACAGUCCGACGAUCGCUGUCCCAUGCAGUCACCGUGAACGCCACCUGCUCGGAGGGGACCUGCAGCUCCCGGGUGGCGAAGACUGUCCCAUCUGCCCCGACUUUGAAGUCCAUGCUGUUGGUCUCAUACUGCAUCAACAGAGGAUUGAGCAUCA
B17: 94875820_94875940_949_CDS_ENSMUSG00000028126_ENSMUST00000107236|mouse|control|control (ssRNA)
RNA: GGGAGUUCUACAGUCCGACGAUCUCCUGGAAGCAACUUCUGCAGAAAUUCUGCUUCUUUAUGCUGGACGGUCUUAAUGAUGAAUUCAUCAUCACUGGACACAUAGAAGAGGGAACCACUAGCUCCAGAAUUGGAGAGUUCAAUCAACAGAGGAUUGAGCAUCA
B18: chr6:114281168:114281169:-_ENSG00000196591_ENST00000368632|hu_hu|FALSE|FALSE (ssRNA)
RNA: GGGAGUUCUACAGUCCGACGAUCUUCCAUUUUUCUGUAUAAGCCAUAAUUUAACAGCAAGUUAUGGGUCAUGCGGAUUCUAUGAGGCUUCAUGGGAUGACCCUGUCCAUAAUAAUAAUUUCCAAUAUCACAGAUUCACUAGAACAACAGAGGAUUGAGCAUCA
B19: chr7:54823571:54823572:-_ENSG00000132432_ENST00000352861|hu_hu|FALSE|FALSE (ssRNA)
RNA: GGGAGUUCUACAGUCCGACGAUCUCCCAUUAUAGCAAAUCCUAUUGCUGUUGCCAUGGCAAUCUUCUGGAAUUCUUUUCUAUCAGGUUUAGUGCAUCUUUUAACCAGCCGAAUGGAGUCCUUUACAAACUGCCGACUUGGCUCCAACAGAGGAUUGAGCAUCA
B20: chr7:65705844:65705845:+_ENSG00000169902_ENST00000304842|hu_mus|hu_hu_hu_mus_False|8_78 (ssRNA)
RNA: GGGAGUUCUACAGUCCGACGAUCAAACGGAUCUUUGUUACAUAAAUAAGGUGCCGGCUCCCCAUGCUUAACAAUGACCUCCAGAAGGAAGGCUUGCAUGGCAGAAUCUAGCACUUCAUCUGUGACACCAGCCUCAUCCAAGCGCAACAGAGGAUUGAGCAUCA
B21: chr1:183139419:183139420:-_ENSMUSG00000038733_ENSMUST00000162963|mus_hu|motif|central (ssRNA)
RNA: GGGAGUUCUACAGUCCGACGAUCUUAUCCCAGUCUCCUUCCAUGACAUGAUUUCGGAAUUUGGUAGCAGAAGGAUGUUCGGAACGACAUCCUGACUCUUGCAUGAGGAGAUCAACAGUCUGGUUGAGCCCUAAGCCAUUCAAGCAACAGAGGAUUGAGCAUCA
B22: chr2:9570881:9570882:+_ENSG00000119203_ENST00000238112|hu_mus|hu_hu_hu_mus_False|18_18 (ssRNA)
RNA: GGGAGUUCUACAGUCCGACGAUCACUUGUCUUCUGAAGGAACCAGGGCAGGGCUCCACAGUGAUCCAAAUGGAAAUGACUGAUCAACAGAAGGUCGAUCUCAGCUGGGUCGAUAAGAUCAAUAUAAGGAAGGGCAUCCAUUCCCAACAGAGGAUUGAGCAUCA

molecular target: T1, UNK ZnF1-3; test: nsRBNS (natural sequence RNA bind-n-seq); RBNS binding buffer (assumed for nsRBNS): 25 mM Tris pH 7.5, 150 mM KCl, 3 mM MgCl2, 0.01% Triton X-100, 500 ug/ml BSA, 20 U/ml SUPERase-In, 4 C; UNK is unkempt and MSI1 is Musashi-1; names of the RNAs are library labels; protein concentration not given here; high values mean tight binding

Row | Binder | binding signal
1 | B1 | 0.924 enrichment R
2 | B2 | 0.861 enrichment R
3 | B3 | 0.661 enrichment R
4 | B4 | 1.41 enrichment R
5 | B5 | 2.61 enrichment R
6 | B6 | 0.355 enrichment R
7 | B7 | 0.678 enrichment R
8 | B8 | 1.44 enrichment R
9 | B9 | 1.12 enrichment R
10 | B10 | 0.951 enrichment R
11 | B11 | 2.78 enrichment R
12 | B12 | 1.05 enrichment R
13 | B13 | 1.11 enrichment R
14 | B14 | 0.949 enrichment R
15 | B15 | 0.595 enrichment R
16 | B16 | 0.552 enrichment R
17 | B17 | 1.07 enrichment R
18 | B18 | 1.02 enrichment R
19 | B19 | 0.682 enrichment R
20 | B20 | 0.56 enrichment R
21 | B21 | 0.544 enrichment R
22 | B22 | 1.17 enrichment R
